# Source: PubChem BioAssay AID328 (DTP/NCI, 2004)
# Inconclusive results and toxic doses are left out. For part of its entries the source gives two or more results. They are shown here; other results are not. There may be further records. The values listed for one entry are repeated measurements across runs, samples, wells, individuals or studies.
# Test system: BDF1 mice, P388 leukemia ip, median survival T/C
# Assay: NCI In Vivo Anticancer Drug Screen. Data for tumor model P388 Leukemia (intraperitoneal) in B6D2F1 (BDF1) mice
# Conditions: endpoint: median survival time, higher = longer survival
# Method in brief: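 Vehicle-dosed animals serve as the reference; survival of compound-dosed, tumour-implanted mice is divided by it.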
# [1] = dose: 300.0 mg/kg/injection, schedule: Q04DX003 (ip), vehicle: saline with Tween-80
# [2] = dose: 200.0 mg/kg/injection, schedule: Q01DX009 (ip), vehicle: saline with Tween-80
structure (smiles),measurement,setting,value
N[C@@H](Cc1ccc(N(CCCl)CCCl)cc1)C(=O)O,T/C,"dose: 16.7 mg/kg/injection, schedule: Q01DX001 (ip), vehicle: saline",98 % of control and 172 % of control
same,T/C,"dose: 30.0 mg/kg/injection, schedule: Q01DX001 (ip), vehicle: Klucel (hydroxypropylcellulose) (HPC)",84 % of control and 163 % of control
C/C=C/C1=C(Cl)C(=O)[C@@H](Cl)[C@@]1(O)C(=O)OC,T/C,"dose: 10.0 mg/kg/injection, schedule: Q01DX009 (ip), vehicle: saline with Tween-80",98 % of control and 151 % of control
CCOC(=O)C(Cc1ccc(N(CCCl)CCCl)cc1)NC(=O)C(Cc1ccccc1)NC=O (configuration not stated),T/C,[1],95 % of control and 172 % of control
CCCCCCCC[N+](C)(CCCCCCCC)CCCCCCCC,T/C,"dose: 0.64 mg/kg/injection, schedule: Q01DX009 (ip), vehicle: saline","104 % of control, 116 % of control, 166 % of control"
O=P(OCc1ccccc1)(N(CCCl)CCCl)N1CCN(P(=O)(OCc2ccccc2)N(CCCl)CCCl)CC1 (configuration not stated),T/C,[1],104 % of control and 188 % of control
Cc1cc2c(c3oc(C4(C)OC4C4OC4C)cc(=O)c13)C(=O)c1c(O)c(C3CC(C)(N(C)C)C(O)C(C)O3)cc(C3CC(N(C)C)C(O)C(C)O3)c1C2=O (configuration not stated),T/C,"dose: 1.0 micrograms/kg/injection, schedule: Q01DX010 (ip), vehicle: carboxymethylcellulose (CMC)",113 % of control and 170 % of control
same,T/C,"dose: 2.0 micrograms/kg/injection, schedule: Q01DX010 (ip), vehicle: carboxymethylcellulose (CMC)",109 % of control and 200 % of control
same,T/C,"dose: 2.0 micrograms/kg/injection, schedule: Q01DX010 (ip), vehicle: saline",120 % of control and 150 % of control
C(/C=C\c1ccccc1)=Nc1ccccc1,T/C,[2],115 % of control and 150 % of control
O=C1NC(C2CCC3CN32)C(=O)NC1C1CCC2CN21 (configuration not stated),T/C,"dose: 0.4 mg/kg/injection, schedule: Q01DX009 (ip), vehicle: saline",100 % of control and 150 % of control
C1CCC2[N-]CC3CCCCC3[N-]CC3CCCCC3[N-]CC3CCCCC3[N-]CC2C1.[Cu] (configuration not stated),T/C,"dose: 1.56 mg/kg/injection, schedule: Q01DX009 (ip), vehicle: saline",123 % of control and 150 % of control
COc1cccc2c1C(=O)c1c(O)c3c(c(O)c1C2=O)CC(O)(C(C)=O)CC3OC1CC(N)C(O)C(C)O1 (configuration not stated),T/C,"dose: 0.5 mg/kg/injection, schedule: Q01DX001 (ip), vehicle: saline",113 % of control and 170 % of control
same,T/C,"dose: 1.0 mg/kg/injection, schedule: Q01DX001 (ip), vehicle: saline",109 % of control and 180 % of control
same,T/C,"dose: 2.0 mg/kg/injection, schedule: Q01DX001 (ip), vehicle: saline",109 % of control and 180 % of control
same,T/C,"dose: 4.0 mg/kg/injection, schedule: Q01DX001 (ip), vehicle: saline","118 % of control, 180 % of control, 200 % of control"
O=C1C=C(C2OC(CO)C(O)C2O)C(=O)N1 (configuration not stated),T/C,"dose: 4.0 mg/kg/injection, schedule: Q01DX010 (ip), vehicle: saline","110 % of control, 150 % of control, 155 % of control"
CC[N+](CC)(CC)CC,T/C,"dose: 4.0 mg/kg/injection, schedule: Q01DX009 (ip), vehicle: saline with Tween-80",118 % of control and 155 % of control
COc1ccc(C(SCC(N)C(=O)O)(c2ccccc2)c2ccccc2)cc1 (configuration not stated),T/C,"dose: 9.3 mg/kg/injection, schedule: Q01DX009 (ip), vehicle: Klucel (hydroxypropylcellulose) (HPC)",118 % of control and 170 % of control
CSCS(=O)C[C@H](CO)NC(=O)/C=C/c1c(C)[nH]c(=O)[nH]c1=O (some centres not stated),T/C,"dose: 3.13 mg/kg/injection, schedule: Q04DX002 (ip), vehicle: Klucel (hydroxypropylcellulose) (HPC)",109 % of control and 166 % of control
C[n+]1ccc(Nc2ccc(NC(=O)c3ccc(Nc4cc[n+](C)c5ccc(N)cc45)cc3)cc2)cc1,T/C,"dose: 16.0 mg/kg/injection, schedule: Q01DX009 (ip), vehicle: Klucel (hydroxypropylcellulose) (HPC)",91 % of control and 200 % of control
ClC1=NC(Cl)C(Cl)=N/C1=N\c1ncn[nH]1 (configuration not stated),T/C,"dose: 33.0 mg/kg/injection, schedule: Q04DX003 (ip), vehicle: saline with Tween-80",113 % of control and 163 % of control
O=C1C(Cl)=C(N2CC2)C(=O)C(Cl)=C1N1CC1,T/C,"dose: 2.5 mg/kg/injection, schedule: Q01DX009 (ip), vehicle: saline",121 % of control and 159 % of control
O=P(N1CC1)(N1CC1)N1CCc2ccccc21,T/C,"dose: 67.0 mg/kg/injection, schedule: Q04DX003 (ip), vehicle: saline","123 % of control, 156 % of control, 165 % of control"
CC1(C)C=C(C(Br)c2ccc(Cl)cc2)C(=O)c2ccccc21 (configuration not stated),T/C,"dose: 200.0 mg/kg/injection, schedule: Q01DX009 (ip), vehicle: Klucel (hydroxypropylcellulose) (HPC)",95 % of control and 150 % of control
O=c1[nH]c(=O)n(C2CC(O)C(CO)O2)cc1F (configuration not stated),T/C,"dose: 100.0 mg/kg/injection, schedule: Q01DX009 (ip), vehicle: water","104 % of control, 122 % of control, 200 % of control"
NC(=S)/N=C\C(CC(O)C(O)C(O)CO)=N\NC(N)=S (configuration not stated),T/C,"dose: 25.0 mg/kg/injection, schedule: Q01DX009 (ip), vehicle: saline with Tween-80","89 % of control, 97 % of control, 170 % of control"
C/C=C/c1ccc2ccc[n+](C)c2c1O,T/C,"dose: 50.0 mg/kg/injection, schedule: Q04DX003 (ip), vehicle: saline sonified",113 % of control and 190 % of control
COc1cc2c(cc1O)C(=O)CCCC2,T/C,[2],98 % of control and 150 % of control
Cc1cc2c3ccccc3ccc2[n+]2ccccc12,T/C,"dose: 12.37 mg/kg/injection, schedule: Q01DX009 (ip), vehicle: saline",100 % of control and 165 % of control
CCC1=C(C[C@H]2NCCc3cc(OC)c(OC)cc32)C[C@H]2c3cc(OC)c(OC)cc3CCN2C1,T/C,"dose: 22.0 mg/kg/injection, schedule: Q04DX003 (ip), vehicle: saline with Tween-80",122 % of control and 154 % of control
CCOC1OCN(C)CC1(C)C (configuration not stated),T/C,"dose: 44.0 mg/kg/injection, schedule: Q01DX009 (ip), vehicle: saline",111 % of control and 154 % of control
CC1(C)N=C(N)N=C(N)N1c1ccc(Cl)c(Cl)c1,T/C,"dose: 15.0 mg/kg/injection, schedule: Q01DX009 (ip), vehicle: Klucel (hydroxypropylcellulose) (HPC)",109 % of control and 180 % of control
NC(=S)N/N=C/c1ccccn1,T/C,"dose: 3.75 mg/kg/injection, schedule: Q01DX010 (ip), vehicle: saline",108 % of control and 155 % of control
COc1cc2cc3c4cc(OC)c(OC)cc4cc[n+]3c(C)c2cc1OC,T/C,"dose: 50.0 mg/kg/injection, schedule: Q01DX009 (ip), vehicle: saline with Tween-80",100 % of control and 163 % of control
COc1cc2cc[n+]3c(C)c4ccc(OC)c(OC)c4cc3c2cc1OC (tested in a mixture with another compound),T/C,"dose: 10.0 mg/kg/injection, schedule: Q01DX009 (ip), vehicle: saline",115 % of control and 157 % of control
COc1ccc(-c2csc(-c3ccccc3)n2)cc1N=Cc1ccc(N(CCCl)CCCl)c(OC)c1,T/C,"dose: 100.0 mg/kg/injection, schedule: Q04DX003 (ip), vehicle: saline with Tween-80",113 % of control and 175 % of control
CC[C@]1(O)C[C@H]2CN(CCc3c([nH]c4ccccc34)[C@@](C(=O)OC)(c3cc4c(cc3OC)N(C=O)[C@H]3[C@@](O)(C(=O)OC)[C@H](OC(C)=O)[C@]5(CC)C=CCN6CC[C@]43[C@@H]65)C2)C1,T/C,"dose: 0.39 mg/kg/injection, schedule: Q04DX002 (ip), vehicle: saline",109 % of control and 150 % of control
same,T/C,"dose: 0.78 mg/kg/injection, schedule: Q04DX002 (ip), vehicle: saline",100 % of control and 175 % of control
same,T/C,"dose: 1670.0 micrograms/kg/injection, schedule: Q04DX003 (ip), vehicle: saline",112 % of control and 377 % of control
O=C1NC(c2ccccc2)(c2ccccc2)C(=O)N1CCN(CCCl)CCCl,T/C,"dose: 75.0 mg/kg/injection, schedule: Q04DX003 (ip), vehicle: saline with Tween-80",90 % of control and 172 % of control
Cc1c2ccncc2c(C)c2c1[nH]c1ccccc12,T/C,"dose: 60.0 mg/kg/injection, schedule: Q04DX003 (ip), vehicle: water","86 % of control, 91 % of control, 158 % of control"
C=C(NC(=O)C(=C)NC(=O)c1csc(C2=NC3c4csc(n4)C4NC(=O)c5csc(n5)C(C(C)(O)C(C)O)NC(=O)C5CSC(=N5)/C(=C/C)NC(=O)C(C(C)O)NC(=O)c5csc(n5)C3(CC2)NC(=O)C(C)NC(=O)C(=C)NC(=O)C(C)NC(=O)C(C(C)CC)NC2C=Cc3c(C(C)O)cc(nc3C2O)C(=O)OC4C)n1)C(N)=O (configuration not stated),T/C,"dose: 400.0 mg/kg/injection, schedule: Q01DX009 (ip), vehicle: Klucel (hydroxypropylcellulose) (HPC)","121 % of control, 183 % of control, 184 % of control"
CCCCOP(=O)(N1CC1CC)N1CC1CC (configuration not stated),T/C,"dose: 200.0 mg/kg/injection, schedule: Q04DX003 (ip), vehicle: saline",124 % of control and 176 % of control
N#Cc1ccc(NC(=O)N(CCCl)N=O)cc1,T/C,"dose: 1.3 mg/kg/injection, schedule: Q04DX003 (ip), vehicle: Klucel (hydroxypropylcellulose) (HPC)",115 % of control and 150 % of control
O/N=c1/ccn(O)c2ccccc12,T/C,"dose: 0.22 mg/kg/injection, schedule: Q01DX009 (ip), vehicle: saline",105 % of control and 170 % of control
Nc1nc2n[nH]nc2c(=O)[nH]1,T/C,"dose: 50.0 mg/kg/injection, schedule: Q01DX010 (ip), vehicle: alkali diluted with saline",122 % of control and 155 % of control
